The labels stand for the following.
B1: LINE1-mini (parent)
chain: GGCAGAGCUCAACACAGCGUGGCAAAGUGGCUGUGGCUAGACUGCC

Read counts are not given, so values of variants with three or more changes are uncertain.

The variants in this data set derive from B1. Kind of data set: self-cleavage, relative activity (ratio to wild type); higher = more cleavage; in vitro, sequencing; the parent is a self-cleaving ribozyme.
In the case of A4G A39U C42U, the self-cleavage turned out to be 0.02.

Regarding U20A U38A U43A, the self-cleavage worked out at 0.

Regarding G1U C10U U34G, the self-cleavage is 0.05.

For the variant G17C U20C G29U C31U U38A, the self-cleavage stood at 0.17.

As to G5C C15A G36A, the self-cleavage was 0.01.

For A11U G17A G27C, the self-cleavage was 0.04.

Turning to G7C U9G G21A C23A U38G A41G, the self-cleavage is 0.01.

Take U20A A39U C42A: the self-cleavage came out at 0.1.

Regarding G7U U9G A24G G27C, the self-cleavage was found to be 0.01.

Regarding G1A U9G A12U G17A U28G G33U, the self-cleavage was determined as 0.04.

With A11G G29U U38A, the self-cleavage amounted to 0.01.

On to G7U G19A A25U, for which the self-cleavage was determined as 0.05.

Turning to C10U A41G G44U, the self-cleavage is 0.03.

In the case of A16U G17A U43C, the self-cleavage turned out to be 0.03.

In the case of G30U U32C G35A, the self-cleavage worked out at 0.1.

For G30U U32C G35C, the self-cleavage worked out at 0.07.

On to C10U U32G G36U, for which the self-cleavage was 0.08.

Regarding A26G C31A G33A G36U C37G, the self-cleavage is 0.17.

In the case of G1C A12G A39G, the self-cleavage came out at 0.01.

Regarding C3G A4U G21A G22U C31U C46A, the self-cleavage stood at 0.02.

For A12G C15G A26U G27U G40A, the self-cleavage is 0.05.

As for C3G A24G G36A C45A, the self-cleavage worked out at 0.04.

As for C8U U28G G40C, the self-cleavage worked out at 0.05.

For C8U U28G G40A, the self-cleavage was 0.15.

Take A4C A39G G44U C46G: the self-cleavage came to 0.3.

For G2A G7A C8A A14C C37G U38A G44C, the self-cleavage was 0.15.

For the variant G1U U20C C45U, the self-cleavage was 0.69.

Take G21C G22U U32C: the self-cleavage was found to be 0.33.

Turning to G1C C3G C15A G21A A25C C37G A41C, the self-cleavage was found to be 0.02.

Regarding A6G A11C A16C C46U, the self-cleavage came out at 0.02.

In the case of G1C G7A C37A, the self-cleavage is 0.01.

On to G27C G35U C42A, for which the self-cleavage worked out at 0.01.

For the variant A16G G30A G35C, the self-cleavage worked out at 0.

As for A4C C8G G17C G35U, the self-cleavage was 0.12.

G2A A4U U9G A16C G33U: the self-cleavage came to 0.24.

C10A C15G G17A G33A U38A G40A: the self-cleavage came to 0.01.

Turning to A16C G21C A25C C31U, the self-cleavage was determined as 0.03.

On to C3A A4U G27A A39C, for which the self-cleavage came to 1.35.

In the case of G19A A39C C46G, the self-cleavage worked out at 0.15.

Consider A25G U32G G35U, for which the self-cleavage worked out at 0.01.

As to G1C A12U G22A, the self-cleavage came to 0.08.

Consider G7A G19A C23G, for which the self-cleavage amounted to 0.04.

With G5U A14U A16C G33C, the self-cleavage stood at 0.05.

Regarding C10A G29A U32A, the self-cleavage stood at 0.02.

Consider A4U U20C C46G, for which the self-cleavage was determined as 0.06.

For the variant G22C C31U G35U C37A, the self-cleavage is 0.03.

As to A11U C37U A39U C45U, the self-cleavage is 0.01.

For G7C C10A C42U, the self-cleavage was 0.03.

A16U G29U A41U C46G: the self-cleavage amounted to 0.12.

With G1U U28G G29C, the self-cleavage turned out to be 0.06.

As for C18A G33U G44C, the self-cleavage is 0.03.

For the variant G1A C13G G35A A39G, the self-cleavage stood at 0.06.

Regarding C23U G36A C37U A39G G40C, the self-cleavage came out at 0.04.

On to C3A C8U C10A A39C, for which the self-cleavage came out at 0.03.

Regarding G27C U34G G36C, the self-cleavage turned out to be 0.06.

As to C10A U28C U43A, the self-cleavage stood at 0.

In the case of C8A G21A U38A A39G, the self-cleavage worked out at 0.78.

As for G1U A4U G30C, the self-cleavage came to 0.01.

Take G5U A25G G40A: the self-cleavage worked out at 0.03.

As to A6C C13U G40A, the self-cleavage is 0.13.

For the variant U9G G21U C31G, the self-cleavage was found to be 0.02.

As for G2A A4G C10A G27C G30U, the self-cleavage is 0.03.

For U9A U28A G29C G36U, the self-cleavage was found to be 0.06.

Turning to A26C U34C G35A U38A, the self-cleavage is 0.05.

Regarding G36C G40A C46A, the self-cleavage is 0.03.

Regarding C3U G33A U38C C42U, the self-cleavage is 0.08.

For the variant A12G A16G U38A, the self-cleavage was 0.04.

For the variant A24U G29U C46G, the self-cleavage was found to be 2.7.

Turning to G30A G33A G35C, the self-cleavage is 0.01.

For A16C C31U C37G C42U, the self-cleavage amounted to 0.02.

Turning to C13A C18A G19C A39C, the self-cleavage worked out at 0.17.

C3U C8U C10A C13U G19U G21A A41U: the self-cleavage came out at 0.02.

C10U C15U A25G: the self-cleavage came to 0.1.

Consider G19U U20C A41U C45G, for which the self-cleavage turned out to be 0.04.

For G7A C13A C31A, the self-cleavage amounted to 0.04.

With G2U C3A G5U, the self-cleavage came out at 0.13.

Turning to A26C G33A G35C, the self-cleavage was 0.04.

For the variant A4C U34C C42A, the self-cleavage stood at 0.06.

A6C A12C G27A C42G: the self-cleavage stood at 0.01.

On to A4C G40A C46A, for which the self-cleavage worked out at 0.06.

For U34G A39G U43C, the self-cleavage is 0.02.

As for G2A A14C C37A, the self-cleavage was determined as 0.09.

Turning to A6G C15U U28A U34C G44U, the self-cleavage is 0.22.

In the case of G5A C15U A24U U28G C31A, the self-cleavage worked out at 0.03.

With G29A U34G C46U, the self-cleavage was 0.28.

Take A24G G29A G36U U43C: the self-cleavage stood at 0.02.

For the variant G2U C10A G40U C46G, the self-cleavage came to 0.

In the case of G5A C18A G35U G36U G40U, the self-cleavage amounted to 0.04.

Take G7C A25U G30C U32G: the self-cleavage was found to be 0.71.

In the case of G5C G7U G30C U43A, the self-cleavage was 0.08.

For the variant U9G C18U G33A U43C, the self-cleavage amounted to 0.04.

Take G7A U32A U34A: the self-cleavage came to 0.19.

Regarding A6C U9A G30U, the self-cleavage came to 0.07.

For the variant G5A C8A C42U, the self-cleavage came to 0.05.

Regarding A11G C18G U34A U38G, the self-cleavage was determined as 0.01.

Regarding A14G C18U G27A U28C, the self-cleavage stood at 0.03.

Take A4G A11G G29U U43C: the self-cleavage was 0.01.

Regarding G2A C13U C18A G40C C42G, the self-cleavage is 0.04.

For C15A G30U U32A C42G, the self-cleavage was found to be 0.04.

For the variant G1A A4G A16U G44A, the self-cleavage was found to be 0.03.

In the case of C10G A16U U20C G33U U34A C42G, the self-cleavage turned out to be 0.

With C13G G29U G40U C46G, the self-cleavage turned out to be 0.09.

Turning to A24G U28G G29C A39U, the self-cleavage amounted to 0.21.

For C10G A11U C23G, the self-cleavage came out at 0.02.

For G1C G5U C8G G40C, the self-cleavage came to 0.01.

As to G5U C8U C23A G33A G35A, the self-cleavage was 0.02.

Consider A4C G7A U9C U28A U32A U43G, for which the self-cleavage came to 0.

In the case of A12C G21U G44U, the self-cleavage came out at 0.04.

On to G21U C31U C42G, for which the self-cleavage came to 0.03.

Regarding C8A A14G U20G, the self-cleavage was 0.05.

Consider G5U G19C U32A U38G, for which the self-cleavage worked out at 0.11.

For A6C A11G C13A A14G C23A G36U, the self-cleavage turned out to be 0.01.

Turning to C8G U20G C31A, the self-cleavage was 0.03.

Turning to C18G C23A G29A C45G, the self-cleavage was 0.21.

With G2A G21U U28A U38G, the self-cleavage was 0.01.

C13U G19U U20A G29A C42U: the self-cleavage was found to be 0.03.

Regarding G2U C10A G17A C31U C37A, the self-cleavage was 0.

Regarding C3U C8U G22C G44U, the self-cleavage is 0.06.

For the variant G2A C8A A25U, the self-cleavage was found to be 0.47.

On to A12C C15U U20G A25U G40C, for which the self-cleavage worked out at 0.01.

Regarding G5C A14C C18U C23G U34C G36A, the self-cleavage worked out at 0.02.

Regarding A4G G5U G17C G21C G33C, the self-cleavage was 0.05.

On to G5A A16C C45U C46A, for which the self-cleavage worked out at 0.06.

Regarding C31U G35U A39G, the self-cleavage stood at 0.02.

As for G30A A39G U43G, the self-cleavage came to 0.05.

A24U G27A C45U: the self-cleavage was 1.17.

In the case of G30U U34A G35C C37U, the self-cleavage turned out to be 0.07.

On to G17U G19C U20A G29U G30U, for which the self-cleavage is 0.49.

With U34C G35A C46A, the self-cleavage was found to be 0.1.

For C13G G33A A39U G40C C42U, the self-cleavage was determined as 0.45.

G21U G30C C31U G44C: the self-cleavage is 0.06.

Turning to A4G A14C G30A A39U, the self-cleavage was 0.02.

A24G A25G G29U G30C U38G A39G C45G: the self-cleavage was found to be 0.

On to G2A A24U C31A, for which the self-cleavage is 0.18.

In the case of C3A A12G A16G G35U, the self-cleavage was 0.05.

For G17C U34C G35U U38A A41U, the self-cleavage came out at 0.03.

As to G2A C10A C23A G36U, the self-cleavage was 0.02.

For the variant G7A C8A G21U G30C, the self-cleavage worked out at 0.32.

Regarding G33A G40A C45G, the self-cleavage came out at 0.04.

Regarding C10U C13A U34C, the self-cleavage amounted to 0.04.

For G21A G22C U34A G40U, the self-cleavage came to 0.05.

Regarding G5U C15A U32A, the self-cleavage is 0.1.

As for A4U G22C U38C, the self-cleavage stood at 0.05.

For the variant G2C C3G C46A, the self-cleavage amounted to 0.1.

For A14G G35U G36C, the self-cleavage worked out at 0.02.

Consider G1U A4C C15U C18U C37U, for which the self-cleavage is 0.02.

Turning to C8A A11C A25U G33A, the self-cleavage was determined as 0.03.

As to G2A G7A C13U, the self-cleavage turned out to be 0.32.

On to A4U C10G C13U A14U, for which the self-cleavage was 0.05.

With A6G C8A G35A A39G, the self-cleavage is 0.14.

C10A C31U G36C C45A: the self-cleavage worked out at 0.02.

Take G1C G22C G29C C31A C42A: the self-cleavage is 0.01.

On to A25G G29U G35C, for which the self-cleavage came out at 0.01.

For the variant A11C A14U C18A U32G, the self-cleavage amounted to 0.01.

In the case of C15A A24U G27A C37G, the self-cleavage was determined as 0.18.

For U32G G33U C37U U38C, the self-cleavage worked out at 0.03.

Take C10A C13A G17U A24C: the self-cleavage is 0.01.

On to G5A A11G G36A, for which the self-cleavage turned out to be 0.04.

For the variant U9C A11C A14G A16C C46U, the self-cleavage turned out to be 0.

Regarding C18G A26G G36A, the self-cleavage stood at 0.04.

As for C18A G19A U43A, the self-cleavage was 0.03.

On to G5A C18G U32A G36C U38A, for which the self-cleavage stood at 0.02.

As to U9G A14C U34A, the self-cleavage was determined as 0.02.

Consider A11C C23A U28G G30U G36A, for which the self-cleavage was 0.05.

For the variant G19C G22U G40C, the self-cleavage turned out to be 0.06.

As for G5U G19U A26G U28A U38G G44C, the self-cleavage was determined as 0.01.

For G1C C23U A39C G40U, the self-cleavage came to 0.04.

Values taken from the RNAGym collection of RNA variant scans (doi:10.7554/elife.90254).
